± gives the standard deviation of the averaged measurements. Over roughly 33,000 sequences, “E-score (dimensionless, -0.5 to 0.5)” has its median near -0.049; the highest 2% begin near 0.37. The list shows a part of the results.

The assay relates to T1, PmTbr T-box DNA-binding domain (GST fusion).
T1 sequence: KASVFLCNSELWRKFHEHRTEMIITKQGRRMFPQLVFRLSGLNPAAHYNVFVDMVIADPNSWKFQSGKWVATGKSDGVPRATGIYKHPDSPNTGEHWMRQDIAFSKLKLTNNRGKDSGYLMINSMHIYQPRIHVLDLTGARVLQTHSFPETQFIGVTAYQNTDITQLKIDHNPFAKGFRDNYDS
Briefly: PBM E-score of 8-mer (E-score (dimensionless, -0.5 to 0.5)); Tbr is Tbrain of the sea star Patiria miniata (Pm) or the sea urchin Strongylocentrotus purpuratus (Sp); higher = stronger binding preference; most listed sequences are background and not binding sites. The conditions noted are these: the construct has about 5 more residues each side. The method in brief: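 GST-fused Tbr T-box DNA-binding domains (the whole T-box plus about five flanking residues) were expressed in BL21 E. coli at 20 °C and purified by glutathione affinity chromatography. Universal Agilent oligonucleotide arrays were made double-stranded by primer extension, incubated with 200 nM protein in PBS (pH 7.5), then scanned and quantified. Every ungapped 8-mer was scored from probe intensities. The Universal PBM Analysis Suite gave each word an enrichment E-score, averaged over duplicate arrays.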
Regarding CGTCATAC, the “PBM E-score of 8-mer” value is 0.107 ± 0.023. As for GAGAGAGA, the “PBM E-score of 8-mer” value turned out to be 0.061 ± 0.012. In the case of AACGGTAT, the “PBM E-score of 8-mer” value is -0.193 ± 0.054.

Turning to CGCGGATC, the “PBM E-score of 8-mer” value is -0.062 ± 0.056. To CGCACAGC belongs 0.0317 ± 0.07; to AATGGGTA, -0.0565 ± 0.071. Regarding GCCCCTCC, the “PBM E-score of 8-mer” value stood at 0.0879 ± 0.011. Under AGGACTTA stands -0.165 ± 0.04; under CCTGCATA, -0.114 ± 0.04. Take CCCAGTAC: the “PBM E-score of 8-mer” value is -0.244 ± 0.011.

Take AGTTCCCC: the “PBM E-score of 8-mer” value is -0.151 ± 0.019.

As to AAGTAAGG, the “PBM E-score of 8-mer” value was -0.0861 ± 0.018. For the sequence TACTCGAA, the “PBM E-score of 8-mer” value is -0.12 ± 0.0073. As to AAAGCATC, the “PBM E-score of 8-mer” value was -0.165 ± 0.046.

Take ATGGGGAA: the “PBM E-score of 8-mer” value amounted to 0.00532 ± 0.025.

For the sequence GTGATCAC, the “PBM E-score of 8-mer” value was 0.276 ± 0.076. For AATCGACC, the “PBM E-score of 8-mer” value came out at 0.0168 ± 0.034. As to AAGGGGGC, the “PBM E-score of 8-mer” value is -0.302 ± 0.033.

With AGTGAAGC, the “PBM E-score of 8-mer” value was -0.0542 ± 0.015.

With GGTAAACA, the “PBM E-score of 8-mer” value is -0.05 ± 0.0081. Consider AGCTGAAC, for which the “PBM E-score of 8-mer” value is -0.107 ± 0.017.

Consider AAATCTGG, for which the “PBM E-score of 8-mer” value was -0.0469 ± 0.029. Turning to ACTGTGGG, the “PBM E-score of 8-mer” value was -0.0612 ± 0.032. Take ATATAATG: the “PBM E-score of 8-mer” value is -0.0513 ± 0.05. To CGTAGATA belongs -0.0977 ± 0.032; to CCGGGCAA, -0.291 ± 0.038; to AGATTGCA, 0.0498 ± 0.025. To GCGACACA belongs 0.302 ± 0.022; to ATCGTAGG, 0.111 ± 0.039. Under CACCAGTC stands 0.121 ± 0.02. For the sequence GGGAGACA, the “PBM E-score of 8-mer” value is 0.0535 ± 0.053. Under AATGTGCC stands 0.23 ± 0.0058. As for GCGTTACC, the “PBM E-score of 8-mer” value stood at 0.24 ± 0.0082.

On to CCGCGAGC, for which the “PBM E-score of 8-mer” value is -0.00227 ± 0.03. On to GTGTCGCA, for which the “PBM E-score of 8-mer” value came out at 0.415 ± 0.0083. In the case of GAGTAGCC, the “PBM E-score of 8-mer” value was -0.136 ± 0.014. Consider TCCTTTAA, for which the “PBM E-score of 8-mer” value was determined as 0.0517 ± 0.017. CCCGCGTC: the “PBM E-score of 8-mer” value is -0.232 ± 0.021. Under CGAGTGAC stands 0.193 ± 0.025; under GTGGTGGA, 0.121 ± 0.01; under CCCACAGA, -0.105 ± 0.004. With ATCAGATA, the “PBM E-score of 8-mer” value is -0.0932 ± 0.0055.

On to CGGATAGA, for which the “PBM E-score of 8-mer” value was -0.117 ± 0.07.

For the sequence ATCTTAGG, the “PBM E-score of 8-mer” value is -0.139 ± 0.038. Under AACCTCGT stands -0.00775 ± 0.063. To AGACTAGG belongs -0.0553 ± 0.059. As to GGTACCTA, the “PBM E-score of 8-mer” value is -0.264 ± 0.074. Under CGATTAGA stands -0.0249 ± 0.051; under ACCCCCCA, -0.17 ± 0.0091. Turning to CGACTGAA, the “PBM E-score of 8-mer” value was -0.0953 ± 0.0045. To CTGTACTC belongs -0.126 ± 0.069. ACAATGGA: the “PBM E-score of 8-mer” value was -0.126 ± 0.054. Regarding ACGCTTCC, the “PBM E-score of 8-mer” value was -0.0398 ± 0.034. In the case of CGCTCCGA, the “PBM E-score of 8-mer” value was -0.113 ± 0.1. On to GGTGGCCA, for which the “PBM E-score of 8-mer” value is -0.0165 ± 0.13. To GAAAGATA belongs -0.231 ± 0.0086. CGTACTAA: the “PBM E-score of 8-mer” value was -0.165 ± 0.15.

On to AGTGGGCG, for which the “PBM E-score of 8-mer” value was determined as 0.113 ± 0.0096. For AATCCGAC, the “PBM E-score of 8-mer” value is -0.00864 ± 0.035. For the sequence CAAGCGTG, the “PBM E-score of 8-mer” value was found to be 0.191 ± 0.021. Take TCTATACA: the “PBM E-score of 8-mer” value was -0.07 ± 0.083. For GACTAAAC, the “PBM E-score of 8-mer” value was -0.118 ± 0.048.

On to CCGTCCCA, for which the “PBM E-score of 8-mer” value was -0.0507 ± 0.061.

Consider ATGCTCGA, for which the “PBM E-score of 8-mer” value was -0.2 ± 0.015. ATGATAAT: the “PBM E-score of 8-mer” value is -0.00907 ± 0.08. For GGCCTGGA, the “PBM E-score of 8-mer” value was -0.343 ± 0.014. To CACAAGTC belongs 0.166 ± 0.021; to CTTCGCAA, 0.336 ± 0.028; to GGGCCATA, -0.114 ± 0.12. For TATAGCGA, the “PBM E-score of 8-mer” value was found to be 0.0577 ± 0.035.

Regarding ACGGATAC, the “PBM E-score of 8-mer” value is -0.135 ± 0.0096. With CTTTGACA, the “PBM E-score of 8-mer” value is 0.24 ± 0.035.

Consider CACCAGCC, for which the “PBM E-score of 8-mer” value came to 0.07 ± 0.0076. Regarding ACCGGTAG, the “PBM E-score of 8-mer” value worked out at 0.0183 ± 0.049. For the sequence AAACATGA, the “PBM E-score of 8-mer” value was found to be 0.0362 ± 0.08. TCTCTTAA: the “PBM E-score of 8-mer” value was -0.265 ± 0.069. As for AAAGTGGC, the “PBM E-score of 8-mer” value was determined as 0.234 ± 0.005. To GATGGGTA belongs -0.0898 ± 0.014; to AGTGTCCC, 0.176 ± 0.004. As for GCTCATAA, the “PBM E-score of 8-mer” value is -0.141 ± 0.02.

Take ATCAGGTC: the “PBM E-score of 8-mer” value is -0.169 ± 0.12. For the sequence AATAATCG, the “PBM E-score of 8-mer” value was determined as 0.0012 ± 0.083. Turning to CGGTTGTC, the “PBM E-score of 8-mer” value was determined as 0.15 ± 0.022. GCGACTAA: the “PBM E-score of 8-mer” value is 0.184 ± 0.017. Regarding GCCTGTAA, the “PBM E-score of 8-mer” value worked out at 0.0336 ± 0.017. ATATCTAC: the “PBM E-score of 8-mer” value was -0.188 ± 0.059.

The values above are taken from the supplement of paper PMC4166925.
